{
  "source": "PubChem BioAssay (NCATS)",
  "note": "The inconclusive results got no clear call from the source; some entries with a clear call stand among them for comparison. Potencies of inconclusive entries are left out as doubtful fits. The source made the active and inactive calls. Calls follow the shape of the dose curve; as a rule, active = well fitted inhibition curve with a large enough effect; inconclusive = small, poorly fitted or top-dose-only effect; inactive = no such curve, though single readings can be large or run the other way. Potency is read from the fitted curve at half-maximal effect; tags tell the direction and shape of the fitted curve.",
  "data": [
    {"assay": "qHTS assay for measurement of the activity of small molecule inhibitors on Zika virus induced Caspase-3 activity in human iPSC derived neural progenitor cells (hNPCs) (AID 1224857); also: nearly all actives have a fitted effect of over 65% in size; as to activity change, negative = inhibition: % of control where 0% means no effect", "conditions": "hNPCs ZIKV-induced caspase-3/7, Caspase-Glo luminescence, 6 h; series mostly up to 45.7 µM; activity change, negative = inhibition: at the top concentration", "how_it_was_run": "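Cells were plated at 350 per well and grown 16 to 20 hours. Compound pretreatment lasted one hour, after which ZIKV (2 FFU/cell) was added for 6 hours. Percent inhibition was normalized between uninfected and infected controls.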", "values": [
      {"smiles": "CN1CC[C@@]2(C)c3cc(O)ccc3N(C)C12", "note": "(some centres undefined)", "Potency": "inconclusive [inhibitor, partial curve, poor fit]"},
      {"smiles": "COc1cc(C(O)CN)ccc1O", "note": "(centres undefined)", "activity change, negative = inhibition": "inactive: -6.02%"},
      {"smiles": "CCOP(=S)(OCC)Oc1ccc2c(C)c(Cl)c(=O)oc2c1", "Potency": "inconclusive [inhibitor, partial curve, poor fit]"},
      {"smiles": "S=C(SSC(=S)N1CCCCC1)N1CCCCC1", "Potency": "inconclusive [inhibitor, single point]"},
      {"smiles": "COc1ccc(CNC(=O)/C=C/c2ccc3[nH]cc(CCN(C)C)c3c2)cc1", "Potency": "inconclusive [inhibitor, single point]"},
      {"smiles": "CN(N=O)c1ccc(O)c(O)c1", "Potency": "inconclusive [inhibitor, partial curve, poor fit]"},
      {"smiles": "O=[N+]([O-])c1c2ccccc2cc2ccccc12", "Potency": "inconclusive [inhibitor, partial curve]"},
      {"smiles": "COc1ccccc1N1CCNCC1", "Potency": "inactive"},
      {"smiles": "COc1ccc2c3c1O[C@H]1[C@@H](O)C=C[C@H]4[C@@H](C2)N(C)CC[C@@]341", "activity change, negative = inhibition": "inactive: 17.2% [at 92.8 µM]"},
      {"smiles": "N#C/C(=C/c1ccc(O)c(O)c1)C(N)=S", "Potency": "inconclusive [inhibitor, single point]"},
      {"smiles": "Cc1ncc2n1-c1ccc(Cl)cc1C(c1ccccc1F)=NC2", "Potency": "inconclusive [inhibitor, full curve, poor fit]"},
      {"smiles": "NC(N)=Nc1ccc2[nH]c3c(c2c1)C[C@@]1(O)[C@H]2Cc4ccc(O)c5c4[C@@]1(CCN2CC1CC1)[C@H]3O5", "Potency": "inconclusive [inhibitor, single point]"},
      {"smiles": "Cc1ncsc1CCCl", "Potency": "inconclusive [inhibitor, single point]"},
      {"smiles": "CC[C@@H](CO)NC(=O)[C@@H]1C=C2c3cccc4[nH]cc(c34)C[C@H]2N(C)C1", "Potency": "inconclusive [inhibitor, partial curve, poor fit]"},
      {"smiles": "Oc1cccc2cccnc12", "Potency": "inconclusive [inhibitor, partial curve, poor fit]"},
      {"smiles": "C=CCOC(Cn1ccnc1)c1ccc(Cl)cc1Cl", "note": "(centres undefined)", "activity change, negative = inhibition": "inactive: 5.54%"},
      {"smiles": "CN(N=O)c1cc(O)ccc1O", "Potency": "inconclusive [inhibitor, partial curve, poor fit]"},
      {"smiles": "C[N+](C)(C)CC#CCOC(=O)Nc1cccc(Cl)c1", "Potency": "inconclusive [inhibitor, single point]"},
      {"smiles": "Oc1ccc([C@H]2CNCc3c2ccc(O)c3O)cc1O", "Potency": "inconclusive [inhibitor, partial curve, poor fit]"}
    ]},
    {"assay": "qHTS Screen of the MIPE 4.0 Collection Against Ewings Sarcoma (RDES) (AID 1259252); also: nearly all actives have a fitted effect of over 35% in size;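 as to viability (percent of control): 100% = DMSO-treated cells and 0% = medium-only wells without cells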", "conditions": "RD-ES Ewing sarcoma viability, CellTiter-Glo, 48 h; series mostly up to 45.8 µM; viability (percent of control): at the top concentration", "how_it_was_run": "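After a 4 h attachment period in RPMI/5% FBS, cells were pin-dosed with test compounds; DMSO served as negative and 9.2 uM bortezomib (final) as positive control. Luminescent CellTiter-Glo signal at 48 h defined viability.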", "values": [
      {"smiles": "CN1CCN(C(=O)O[C@H]2c3nccnc3C(=O)N2c2ccc(Cl)cn2)CC1", "Potency": "inconclusive [inhibitor, single point]"},
      {"smiles": "CN1C(=O)COc2c(C(=O)NC3CN4CCC3CC4)cc(Cl)cc21", "note": "(centres undefined)", "viability (percent of control)": "inactive: 123%"},
      {"smiles": "O=C1CCC[C@@H]2[C@H]3CCCN4CCC[C@@H](CN12)[C@@H]34", "viability (percent of control)": "inactive: 115%"},
      {"smiles": "O=C(NCC1CCOCC1)c1cnc(Nc2ccc(Cl)cc2Cl)nc1C(F)(F)F", "Potency": "inconclusive [inhibitor, single point]"},
      {"smiles": "C[C@]12CC[C@H]3[C@@H](CCC4=CC(=O)CC[C@@]43C)[C@H]1CC[C@H]2OC(=O)CCC1CCCC1", "viability (percent of control)": "inactive: 109%"},
      {"smiles": "COc1ccc2c(c1)CN(C)CC2c1ccc(Cl)c(Cl)c1", "note": "(centres undefined)", "Potency": "inconclusive [inhibitor, single point]"},
      {"smiles": "CCOC(=O)c1cncn1[C@H](C)c1ccccc1", "Potency": "inconclusive [inhibitor, partial curve, poor fit]"},
      {"smiles": "CN(C)NC(=O)CCC(=O)O", "Potency": "active: 26.4 µM"},
      {"smiles": "CC1(N2CCC(n3c([C@@H]4CCCNC4)nc4ccccc43)CC2)CCCCCCC1", "Potency": "inconclusive [inhibitor, single point]"},
      {"smiles": "COc1ccc2c(c1OC)CN1CCc3cc4c(cc3C1C2)OCO4", "note": "(centres undefined)", "Potency": "active: 14.8 µM"},
      {"smiles": "COc1cc(OC)c(OC)cc1C=O", "Potency": "inconclusive [inhibitor, single point]"},
      {"smiles": "COCC1(CO)C(=O)C2CCN1CC2", "note": "(centres undefined)", "Potency": "active: 2.09 µM"},
      {"smiles": "O=P1(NCCCl)OCCCN1CCCl", "note": "(centres undefined)", "Potency": "inconclusive [inhibitor, single point]"},
      {"smiles": "c1cc2c(cc1[C@H]1OC[C@H]3[C@H]1CO[C@H]3c1ccc3c(c1)OCO3)OCO2", "Potency": "inconclusive [inhibitor, single point]"},
      {"smiles": "CC(C)[C@H]1C(=O)N[C@H](CO)Cc2c[nH]c3cccc(c23)N1C", "Potency": "inconclusive [inhibitor, partial curve, poor fit]"},
      {"smiles": "CCCC[N+]1(C)[C@H]2CC(OC(=O)[C@H](CO)c3ccccc3)C[C@H]1[C@H]1O[C@H]12", "note": "(some centres undefined)", "viability (percent of control)": "inactive: 128%"},
      {"smiles": "C[C@]12COC(=O)C[C@@H]1CC[C@@H]1[C@H]2CC[C@@]2(C)[C@H]1CC[C@]2(C)O", "Potency": "inconclusive [inhibitor, single point]"},
      {"smiles": "NC1CC1c1ccccc1", "note": "(centres undefined)", "Potency": "inconclusive [inhibitor, single point]"},
      {"smiles": "C[C@]12CCC(=O)C=C1CC[C@@H]1[C@H]3CC[C@](C)(O)[C@@]3(C)CC[C@@H]12", "Potency": "inconclusive [inhibitor, full curve, poor fit]"},
      {"smiles": "CN(C)[C@@H]1C(=O)C(C(N)=O)=C(O)[C@@]2(O)C(=O)C3=C(O)c4c(O)cccc4[C@@](C)(O)[C@H]3C[C@@H]12", "Potency": "inconclusive [inhibitor, partial curve, poor fit]"}
    ]}
  ]
}
